The supplement of paper PMC6135742
Where a name gives a salt, the structure may show the parent alone. ± gives the standard deviation of the averaged measurements. In all, about 2,600 compounds were measured (“total cell number (DAPI+ nuclei) relative to DMSO vehicle control”: median about -1.4, lowest 2% from about -23 on). Some of the results follow.

system: jimpy (Plp1 jimpy) mouse iPSC-derived oligodendrocyte progenitor cells; assay: total cell number (DAPI+ nuclei) relative to DMSO vehicle control (SDs above negative control mean); higher = more surviving cells; conditions: 10 µM; 3 days

Compound	total cell number
CNC1CCCN(c2c(F)cc3c(=O)c(C(=O)O)cn(C4CC4)c3c2OC)C1 (centres undefined) [Balofloxacin]	-0.259
NC1(C(=O)O)CCCCC1 [1-Amino-1-cyclohexanecarboxylic acid hydrochloride]	-1.3
C=C1CC[C@H](O)C/C1=C/C=C1\CCC[C@]2(C)[C@@H]([C@H](C)CCCC(C)C)CC[C@@H]12 [Vitamin D3]	-0.478
NNCCc1ccccc1 [Phenelzine sulfate]	-0.6
CC(C)(O)[C@H]1CC[C@@](C)([C@H]2[C@@H](O)C[C@@]3(C)[C@@H]4C[C@H](O[C@@H]5O[C@H](CO)[C@@H](O)[C@H](O)[C@H]5O)[C@H]5C(C)(C)[C@@H](O[C@@H]6OC[C@@H](O)[C@H](O)[C@H]6O)CC[C@@]56C[C@@]46CC[C@]23C)O1 [Astragaloside A]	-0.31
CC(C)(C)NCC(O)COc1cccc2[nH]c(=O)[nH]c12 (racemic)	-0.745
CCCc1cc(C(N)=S)ccn1 [Protionamide]	-0.33
C#Cc1cccc(Nc2ncnc3cc(OC)c(OCCCCCCC(=O)NO)cc23)c1	-18.7
CC(=O)S[C@@H]1CC2=CC(=O)CC[C@]2(C)[C@H]2CC[C@@]3(C)[C@@H](CC[C@@]34CCC(=O)O4)[C@H]12 [Spironolactone]	-1.48 ± 1.4
O=C(O)[C@]1(Cc2cccc(Nc3nccs3)n2)CC[C@@H](Oc2cccc(Cl)c2F)CC1	-4.55
CC(=O)Nc1ccc(C(=O)Nc2ccccc2N)cc1 [CI994 (Tacedinaline)]	-6.95
COc1cc2c(Nc3ccc(NC(=O)c4ccccc4)cc3)ncnc2cc1OCCCN1CCOCC1	-26.6
CC(C)(C)c1cnc(CSc2cnc(NC(=O)C3CCNCC3)s2)o1	-22.9
COc1ccc(-c2cc(=O)c3c(O)c(OC)c(OC)cc3o2)cc1O [Eupatorin]	-8.23
CCN[C@H]1CN(CCCOC)S(=O)(=O)c2sc(S(N)(=O)=O)cc21 [Brinzolamide]	-1.41 ± 1
CC(C)c1c(C(=O)Nc2ccccc2)c(-c2ccccc2)c(-c2ccc(F)cc2)n1CC[C@@H](O)C[C@@H](O)CC(=O)O [Atorvastatin calcium salt trihydrate]	-4.46
CC(C)c1c(C(=O)Nc2ccccc2)c(-c2ccccc2)c(-c2ccc(F)cc2)n1CC[C@@H](O)C[C@@H](O)CC(=O)O [Atorvastatin Calcium]	-8.47
CN(C)CCC(c1ccc(Cl)cc1)c1ccccn1 (racemic) [(±)-Chlorpheniramine maleate]	-2.22
CN(C)CCC(c1ccc(Cl)cc1)c1ccccn1 (racemic) [Chlorpheniramine Maleate]	-2.4
COC(=O)Nc1nc2cc(C(=O)c3cccs3)ccc2[nH]1 [Nocodazole]	-5.46 ± 0.78
CC(=Cc1ccc(C(=O)O)cc1)c1ccc2c(c1)C(C)(C)CCC2(C)C	-1.34
COc1cc(Br)c(Nc2nc(-c3c(C)nc4ncccn34)cs2)c(Br)c1	-13
O=C(O)CCCCCCCC(=O)O [Azelaic acid]	-1.13
OCCN1CCN(CC/C=C2/c3ccccc3Sc3ccc(C(F)(F)F)cc32)CC1 [cis-(Z)-Flupenthixol dihydrochloride]	-7.96
COc1cc2ncnc(Sc3nnc(C)s3)c2cc1OC	-13.4
Cc1cn[nH]c1 [4-Methylpyrazole hydrochloride]	0.966
Cc1ccc(S(=O)(=O)c2ccc([N+](=O)[O-])o2)cc1	-16.4

Compound	total cell number
OC(Cn1cncn1)(Cn1cncn1)c1ccc(F)cc1F [Fluconazole]	4.46
NCCc1c[nH]cn1 [Histamine dihydrochloride]	-0.826
NCCc1c[nH]cn1 [Histamine 2HCl]	-1.12
CC[N+](C)(C)c1cccc(O)c1 [Edrophonium chloride]	-1.85
Nc1[nH]cnc2ncnc1-2 [Adenine HCl]	-0.0804
C[C@@H](NCCCc1cccc(C(F)(F)F)c1)c1cccc2ccccc12 [Cinacalcet HCl]	-17.8
CC(=O)Nc1cccc(-n2c(=O)n(C3CC3)c(=O)c3c(Nc4ccc(I)cc4F)n(C)c(=O)c(C)c32)c1	-7.48
C#CC(N)CCC(=O)O (centres undefined) [gamma-Acetylinic GABA]	-0.506
COc1c(C)c(C(=O)c2ccc(N)c(C(=O)O)c2)n2ccccc12	0.936
COc1ccc(-c2ccc3c(N4CCOC[C@@H]4C)nc(N4CCOC[C@@H]4C)nc3n2)cc1CO	-13.1
COc1cc(C(=O)OCCCN2CCCN(CCCOC(=O)c3cc(OC)c(OC)c(OC)c3)CC2)cc(OC)c1OC [Dilazep hydrochloride]	-5.8
N=C(NC(=O)c1nc(Cl)c(N)nc1N)Nc1ccccc1 [Phenamil methanesulfonate]	-2.73
COc1ccc([C@@H]2CC(=O)c3c(O)cc(O)cc3O2)cc1O [Hesperetin]	-0.778
CN(C)CCCN1c2ccccc2Sc2ccc(C(F)(F)F)cc21 [Triflupromazine hydrochloride]	-8.64
O=C1NC(=O)c2c1c(-c1ccccc1)cc1[nH]c3ccc(O)cc3c21	-9.61
Nc1c(CC(=O)O)cccc1C(=O)c1ccccc1 [Amfenac Sodium Monohydrate]	2.67
Oc1cc(O)c2c(c1)O[C@H](c1ccc(O)c(O)c1)[C@@H](O)C2 [(+)-Catechin Hydrate]	-0.819
CC(=O)Oc1ccccc1C(=O)Nc1ncc([N+](=O)[O-])s1 [Nitazoxanide]	-0.866
NC(=O)c1ccc(N(C(N)=O)c2c(F)cccc2F)nc1-c1ccc(F)cc1F	0.454
C[N+]1(C)CCC(OC(=O)C(c2ccccc2)c2ccccc2)CC1 [4-DAMP methiodide]	2.32
C[N+]1(C)CCC(OC(=O)C(c2ccccc2)c2ccccc2)CC1	-0.239
CCCc1cc(C)[nH]c(=O)c1CNC(=O)c1cc(-c2ccc(N3CCN(C(C)C)CC3)nc2)cc2c1cnn2C(C)C	-13.3
CC(N/C(=N\C#N)Nc1ccncc1)C(C)(C)C (centres undefined) [Pinacidil]	0.255
CCN(CC)CCOC(=O)C1(C2CCCCC2)CCCCC1 [Dicyclomine hydrochloride]	1.75
O=c1cc(-c2ccccc2)oc2c(O)c(O)ccc12 [7,8-Dihydroxyflavone hydrate]	0.407
CN1CCN(C2=Nc3ccccc3Oc3ccc(Cl)cc32)CC1 [Loxapine succinate]	-2.84
CN1CCN(C2=Nc3ccccc3Oc3ccc(Cl)cc32)CC1 [Loxapine Succinate]	-4.24

Compound	total cell number
CC(C)CC(N)=O [Isovaleramide]	0.518
COc1c2occc2cc2ccc(=O)oc12 [Methoxsalen]	-1.76
O=C(Nc1cccc(Cl)c1)c1ccccn1	-2.66
N#Cc1ccc(C(c2ccc(C#N)cc2)n2cncn2)cc1 [Letrozole]	-0.0169
CN(C)C(=O)Nc1cccc(-c2ccc(N(C)C)cc2)c1 [Atglistatin]	4.29
Clc1ccc(CCC(Cn2ccnc2)Sc2c(Cl)cccc2Cl)cc1 (centres undefined) [Butoconazole nitrate]	1.6
C[C@@]1(C(=O)Nc2ccc(F)nc2)CCCN1c1nc(Nc2cc(C3CC3)n[nH]2)c2cccn2n1	-24.7
Cc1cc2c(cc1CC(=O)c1sccc1S(=O)(=O)Nc1onc(C)c1Cl)OCO2 [Sitaxentan sodium]	0.886
C[C@@H]1C[C@H]2[C@@H]3C[C@H](F)C4=CC(=O)C=C[C@]4(C)[C@@]3(F)[C@@H](O)C[C@]2(C)[C@@]1(O)C(=O)CO [Flumethasone]	4.79
O=C(NC[C@H]1CN(c2ccc(N3CCOCC3=O)cc2)C(=O)O1)c1ccc(Cl)s1 [Rivaroxaban]	-1.17
CC[C@H](/C=C/[C@@H](C)[C@H]1CC[C@H]2[C@@H]3CC=C4C[C@@H](O)CC[C@]4(C)[C@H]3CC[C@]12C)C(C)C [Stigmasterol]	-0.837
O=C(O)c1cn(-c2ccc(F)cc2)c2cc(N3CCNCC3)c(F)cc2c1=O [Sarafloxacin HCl]	1.78
c1ccc(NCc2ccc(CNc3ccccn3)cc2)nc1	-3.52
NCCC[C@](N)(C(=O)O)C(F)F (racemic) [DL-alpha-Difluoromethylornithine hydrochloride]	-1.15
Cc1nnc(C(=O)NC(C)(C)c2nc(C(=O)NCc3ccc(F)cc3)c(O)c(=O)n2C)o1 [Raltegravir (MK-0518)]	20.5
CS(=O)(=O)N1CCc2c(-c3cnc(N)nc3)nc(N3CCOCC3)nc21	-9.93
Cn1ccc2cc(NC(=O)Nc3cccnc3)ccc21	-2.19
CC(=O)[C@]1(O)Cc2c(O)c3c(c(O)c2[C@@H](O[C@H]2C[C@H](N)[C@H](O)[C@H](C)O2)C1)C(=O)c1ccccc1C3=O [Idarubicin HCl]	38.4
CC(=O)[C@]1(O)Cc2c(O)c3c(c(O)c2[C@@H](O[C@H]2C[C@H](N)[C@H](O)[C@H](C)O2)C1)C(=O)c1ccccc1C3=O [Idarubicin]	9.25
Cc1nc(=O)c2cc(CN(C)c3ccc(C(=O)N[C@@H](CCC(=O)O)C(=O)O)s3)ccc2[nH]1 [Raltitrexed]	0.684
CN1CCN(CCCN2c3ccccc3Sc3ccc(Cl)cc32)CC1 [Prochlorperazine dimaleate]	-10.5
CC(/C=C1\SC(=S)N(CC(=O)O)C1=O)=C\c1ccccc1 [Epalrestat]	-1.67 ± 0.58
O=C1c2ccccc2C(=O)c2c1ccc(O)c2O [Alizarin]	0.306
N[C@@H]1[C@H]2CN(c3nc4c(cc3F)c(=O)c(C(=O)O)cn4-c3ccc(F)cc3F)C[C@@H]12 [Trovafloxacin mesylate]	0.819
C[C@H](CCC(=O)O)[C@H]1CC[C@H]2[C@@H]3[C@H](O)C[C@@H]4C[C@H](O)CC[C@]4(C)[C@H]3CC[C@]12C [Chenodeoxycholic Acid]	-0.33
